{"source": "the supplement of paper PMC8728848", "binders": {"B1": {"name": "FaeGac (Escherichia coli) (protein)", "chain": "WMTGDFNGSVDIGGSITADDYRQKWEWKVGTGLNGFGNVLNDLTNGGTKLTITVTGNKPILLGRTKEAFATPVTGGVDGIPHIAFTDYEGASVVLRKPDGETNKNGLAYFVLPMKNAGGTKVGSVKVNASYAGVLGRGGVTSADGELLSLFADGLSSIFYGGLPRGSELSAGSAAAARTKLFGSLSRDDILGQIQRVNANVTSLVDVAGSYRENMEYTDGNVVSAAYALGIANGQTIEATFNQAVTTSTQWSAPLNVAITYY"}}, "assay_in_all_cases": "glycan array binding signal (z-score within array); higher = stronger binding", "conditions_in_all_cases": "glycan notation: IUPAC condensed, linker removed", "key": {"Fuc(a1-2)Gal": {"biological_target": "Fuc(a1-2)Gal", "summary_of_the_method": "(§1)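 The binding signal is a Z-score computed within each array and averaged over linkers. Arrays of the same protein sequence at different concentrations or buffers were also averaged together. Data originate from 3228 arrays in the Consortium for Functional Glycomics database, kept only where the protein sequence was available.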"}, "Fuc(a1-2)Gal(b1-3)GalNAc": {"biological_target": "Fuc(a1-2)Gal(b1-3)GalNAc", "summary_of_the_method": "as §1"}, "[1]": {"biological_target": "Fuc(a1-2)Gal(b1-3)GalNAc(b1-3)Gal", "summary_of_the_method": "as §1"}, "[2]": {"biological_target": "Fuc(a1-2)Gal(b1-3)GalNAc(b1-3)Gal(a1-4)Gal(b1-4)Glc", "summary_of_the_method": "as §1"}, "[3]": {"biological_target": "Fuc(a1-2)Gal(b1-3)GalNAc(b1-4)[Neu5Ac(a2-3)]Gal(b1-4)Glc", "summary_of_the_method": "as §1"}, "Fuc(a1-2)Gal(b1-3)GlcNAc": {"biological_target": "Fuc(a1-2)Gal(b1-3)GlcNAc", "summary_of_the_method": "as §1"}, "[4]": {"biological_target": "Fuc(a1-2)Gal(b1-3)GlcNAc(b1-3)Gal(b1-4)Glc", "summary_of_the_method": "as §1"}, "[5]": {"biological_target": "Fuc(a1-2)Gal(b1-3)[Fuc(a1-4)]GlcNAc", "summary_of_the_method": "as §1"}, "Fuc(a1-2)Gal(b1-4)Glc": {"biological_target": "Fuc(a1-2)Gal(b1-4)Glc", "summary_of_the_method": "as §1"}, "Fuc(a1-2)Gal(b1-4)GlcNAc": {"biological_target": "Fuc(a1-2)Gal(b1-4)GlcNAc", "summary_of_the_method": "as §1"}, "[6]": {"biological_target": "Fuc(a1-2)Gal(b1-4)GlcNAc(b1-3)Gal(b1-4)GlcNAc", "summary_of_the_method": "as §1"}, "[7]": {"biological_target": "Fuc(a1-2)Gal(b1-4)GlcNAc(b1-3)Gal(b1-4)GlcNAc(b1-3)Gal(b1-4)GlcNAc", "summary_of_the_method": "as §1"}, "[8]": {"biological_target": "Fuc(a1-2)Gal(b1-4)[Fuc(a1-3)]GlcNAc", "summary_of_the_method": "as §1"}, "[9]": {"biological_target": "Fuc(a1-2)Gal(b1-4)[Fuc(a1-3)]GlcNAc(b1-3)Gal(b1-4)[Fuc(a1-3)]GlcNAc", "summary_of_the_method": "as §1"}, "[10]": {"biological_target": "Fuc(a1-2)Gal(b1-4)[Fuc(a1-3)]GlcNAc(b1-3)Gal(b1-4)[Fuc(a1-3)]GlcNAc(b1-3)Gal(b1-4)[Fuc(a1-3)]GlcNAc", "summary_of_the_method": "as §1"}, "Fuc(a1-2)GlcNAc": {"biological_target": "Fuc(a1-2)GlcNAc", "summary_of_the_method": "as §1"}, "Fuc(a1-2)[Gal(a1-3)]Gal": {"biological_target": "Fuc(a1-2)[Gal(a1-3)]Gal", "summary_of_the_method": "as §1"}, "[11]": {"biological_target": "Fuc(a1-2)[Gal(a1-3)]Gal(b1-3)GlcNAc", "summary_of_the_method": "as §1"}, "[12]": {"biological_target": "Fuc(a1-2)[Gal(a1-3)]Gal(b1-4)Glc", "summary_of_the_method": "as §1"}, "[13]": {"biological_target": "Fuc(a1-2)[Gal(a1-3)]Gal(b1-4)GlcNAc", "summary_of_the_method": "as §1"}, "[14]": {"biological_target": "Fuc(a1-2)[Gal(a1-3)]Gal(b1-4)[Fuc(a1-3)]GlcNAc", "summary_of_the_method": "as §1"}, "[15]": {"biological_target": "Fuc(a1-2)[Gal(a1-4)]Gal(b1-4)GlcNAc", "summary_of_the_method": "as §1"}, "[16]": {"biological_target": "Fuc(a1-2)[GalNAc(a1-3)]Gal", "summary_of_the_method": "as §1"}, "[17]": {"biological_target": "Fuc(a1-2)[GalNAc(a1-3)]Gal(b1-3)GlcNAc", "summary_of_the_method": "as §1"}, "[18]": {"biological_target": "Fuc(a1-2)[GalNAc(a1-3)]Gal(b1-4)Glc", "summary_of_the_method": "as §1"}, "[19]": {"biological_target": "Fuc(a1-2)[GalNAc(a1-3)]Gal(b1-4)GlcNAc", "summary_of_the_method": "as §1"}, "[20]": {"biological_target": "Fuc(a1-2)[GalNAc(a1-3)]Gal(b1-4)[Fuc(a1-3)]GlcNAc", "summary_of_the_method": "as §1"}, "[21]": {"biological_target": "Fuc(a1-2)[GalNAc(a1-4)]Gal(b1-4)GlcNAc", "summary_of_the_method": "as §1"}, "[22]": {"biological_target": "Fuc(a1-2)[GalNAc(b1-3)]Gal", "summary_of_the_method": "as §1"}, "Fuc(a1-3)GlcNAc": {"biological_target": "Fuc(a1-3)GlcNAc", "summary_of_the_method": "as §1"}}, "note": "The other results are listed elsewhere or left out.", "data": [{"binder": "B1", "values": [{"measurement": "glycan array binding signal (z-score)", "setting": "Fuc(a1-2)Gal", "value": -0.594}, {"measurement": "glycan array binding signal (z-score)", "setting": "Fuc(a1-2)Gal(b1-3)GalNAc", "value": -0.804}, {"measurement": "glycan array binding signal (z-score)", "setting": "[1]", "value": -0.477}, {"measurement": "glycan array binding signal (z-score)", "setting": "[2]", "value": 2.33}, {"measurement": "glycan array binding signal (z-score)", "setting": "[3]", "value": -0.669}, {"measurement": "glycan array binding signal (z-score)", "setting": "Fuc(a1-2)Gal(b1-3)GlcNAc", "value": -0.857}, {"measurement": "glycan array binding signal (z-score)", "setting": "[4]", "value": -0.584}, {"measurement": "glycan array binding signal (z-score)", "setting": "[5]", "value": -0.258}, {"measurement": "glycan array binding signal (z-score)", "setting": "Fuc(a1-2)Gal(b1-4)Glc", "value": -0.709}, {"measurement": "glycan array binding signal (z-score)", "setting": "Fuc(a1-2)Gal(b1-4)GlcNAc", "value": -0.638}, {"measurement": "glycan array binding signal (z-score)", "setting": "[6]", "value": 0.856}, {"measurement": "glycan array binding signal (z-score)", "setting": "[7]", "value": 0.112}, {"measurement": "glycan array binding signal (z-score)", "setting": "[8]", "value": -0.41}, {"measurement": "glycan array binding signal (z-score)", "setting": "[9]", "value": -0.232}, {"measurement": "glycan array binding signal (z-score)", "setting": "[10]", "value": 0.118}, {"measurement": "glycan array binding signal (z-score)", "setting": "Fuc(a1-2)GlcNAc", "value": -0.655}, {"measurement": "glycan array binding signal (z-score)", "setting": "Fuc(a1-2)[Gal(a1-3)]Gal", "value": -0.887}, {"measurement": "glycan array binding signal (z-score)", "setting": "[11]", "value": -0.887}, {"measurement": "glycan array binding signal (z-score)", "setting": "[12]", "value": 0.407}, {"measurement": "glycan array binding signal (z-score)", "setting": "[13]", "value": -0.879}, {"measurement": "glycan array binding signal (z-score)", "setting": "[14]", "value": -0.768}, {"measurement": "glycan array binding signal (z-score)", "setting": "[15]", "value": 0.005}, {"measurement": "glycan array binding signal (z-score)", "setting": "[16]", "value": -0.835}, {"measurement": "glycan array binding signal (z-score)", "setting": "[17]", "value": -0.94}, {"measurement": "glycan array binding signal (z-score)", "setting": "[18]", "value": -0.557}, {"measurement": "glycan array binding signal (z-score)", "setting": "[19]", "value": -0.718}, {"measurement": "glycan array binding signal (z-score)", "setting": "[20]", "value": -0.944}, {"measurement": "glycan array binding signal (z-score)", "setting": "[21]", "value": -0.199}, {"measurement": "glycan array binding signal (z-score)", "setting": "[22]", "value": -0.328}, {"measurement": "glycan array binding signal (z-score)", "setting": "Fuc(a1-3)GlcNAc", "value": 1.05}]}]}
